Results: PubChem BioAssay AID493208 (National Center for Advancing Translational Sciences (NCATS), 2011)
Screen size: about 44,000 compounds; about 340 (0.77%) were called active. Not shown: some 5% with an inconclusive outcome. Calls come from the whole dose curve; as a rule, active = well fitted inhibition curve with a large enough effect; inconclusive = small, poorly fitted or top-dose-only effect; inactive = flat fitted curve, though single readings scatter. The list shows a part of the results.

Assay: Acumen qHTS Assay for Inhibitors of the mTORC1 Signaling Pathway in MEF (Tsc2-/-, p53-/-) Cells: Sytravon; note: nearly all actives have a fitted effect of over 50% in size;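 for activity change, negative = inhibition: plate controls were DMSO for no effect and rapamycin for full effect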
Conditions: phospho-rpS6 immunofluorescence/PI, 24 h; series mostly up to 38.3 µM; activity change, negative = inhibition: at the top concentration
Method in brief: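 Read-out: phospho-S6 Alexa-488 intensity over PI intensity per well, scored as % active cells using thresholds from rapamycin (7.5 nM) and DMSO controls. Tsc2-/-, p53-/- MEFs exposed to compound for 24 h; PI cell count recorded as viability.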
Potency is the fitted concentration of half-maximal effect.

Row | Compound | activity change, negative = inhibition | Potency
1 | CCc1c(C)sc2c1CCN(C(=O)Nc1ccccc1Cl)C2c1ccc(OC)cc1 (stereo unspecified) | inactive: -1.34% | –
2 | Cc1ccc(-c2noc(-c3ccc(NC4CCCC4)c([N+](=O)[O-])c3)n2)cc1 | inactive: 6.56% | –
3 | Cc1cc(-n2c(SCc3ccccc3F)nc3[nH]ncc3c2=O)ccc1Cl | inactive: 0.754% | –
4 | CC(C)(C)OC(=O)N1CCC(c2nnc(SCc3ccccc3Cl)o2)CC1 | inactive: -6.38% | –
5 | CS(=O)(=O)c1ncc(N(Cc2ccco2)Cc2cccs2)c(C(=O)Nc2ccccc2F)n1 | inactive: -1.65% | –
6 | COc1ccc(Cl)cc1NC(=O)C(C)n1c(=O)cc(C(F)(F)F)c2c(C)nn(C)c21 (stereo unspecified) | inactive: -8.73% | –
7 | Cc1ccc(Cn2ccn(Cc3ccc(C)cc3)c(=O)c2=O)cc1 | inactive: 0% | –
8 | CC1CCc2onc(C(=O)N3CCN(c4ccc(Cl)cc4)CC3)c2C1 (stereo unspecified) | inactive: -2.89% | –
9 | CCOc1ccc(CNC(=O)CCCn2nc(C)c3c(C)n(-c4ccc(C)cc4)nc3c2=O)cc1 | inactive: -2.08% | –
10 | COc1ccc(N2C(=O)NC(NS(=O)(=O)c3ccc(NC(C)=O)cc3)(C(F)(F)F)C2=O)cc1 (stereo unspecified) | inactive: -2.92% | –
11 | CCc1ccc(NC(=O)Cn2cnc3nc4c(cc3c2=O)CCCC4)cc1 | inactive: -1.42% | –
12 | Cc1ccc(C(=O)N2CC(=O)Nc3ccc(Br)cc3C2c2ccc(F)cc2)cc1C (stereo unspecified) | inactive: 1.72% | –
13 | COc1ccc(CNC(=O)Cc2c(C)c3c(O)cc(C)cc3oc2=O)cc1 | inactive: -6.13% | –
14 | Cc1ccc(C)c(N2CCN(C(=O)CCc3c(C)nc4c(c3C)c(=O)n(C)c(=O)n4C)CC2)c1 | inactive: -4.29% | –
15 | CCN1CCN(C(=O)Cn2c(-c3cccs3)cc3cc(Cl)ccc32)CC1 | inactive: -9.24% | –
16 | COc1ccccc1CNC(=O)C1CCN(c2ncnc3c2nc2n3CCCCC2)CC1 | inactive: -8.73% | –
17 | CC(C)CCNC(=O)c1c[nH]c2ccc(S(=O)(=O)Nc3cccc(C(F)(F)F)c3)cc2c1=O | inactive: -0.233% | –
18 | CCc1ccc(-n2c3nc(=O)[nH]c(=O)c-3cc3c(C)nn(-c4ccccc4)c32)cc1 | inactive: -5.79% | –
19 | COc1ccc(C(CNC(=O)c2oc3ccccc3c2C)N2CCCCC2)cc1 (stereo unspecified) | inactive: -0.166% | –
20 | COc1cc(Cl)c(C)cc1NC(=O)c1c(C)oc2nc(C)nc(N3CCCC3)c12 | inactive: -3.92% | –
21 | Cc1noc(-c2ccc(N3CCCCC3C)c([N+](=O)[O-])c2)n1 (stereo unspecified) | inactive: 3.92% | –

Row | Compound | activity change, negative = inhibition | Potency
22 | CCc1nnc(NC(=O)CSc2nccn2Cc2ccccc2)s1 | inactive: -15.5% | –
23 | O=C1CCCc2cc(S(=O)(=O)N3CCCC(C(=O)NCc4ccccc4Cl)C3)ccc2N1 (stereo unspecified) | inactive: 6.95% | –
24 | Cc1ccc(-c2noc(-c3nnn(CC(=O)Nc4ccc(C)cc4Cl)c3N)n2)cc1 | inactive: -13.9% | –
25 | Cc1ccc(-n2c(=O)c3oc4ccccc4c3n(Cc3ccccc3)c2=O)cc1C | inactive: 2.54% | –
26 | CCC(=O)N1CCc2cc(CNS(=O)(=O)c3ccccc3F)ccc21 | inactive: -7.98% | –
27 | Cc1cc(C)cc(NS(=O)(=O)c2ccc3[nH]cc(C(=O)N4CCCCC4)c(=O)c3c2)c1 | inactive: 7.17% | –
28 | COc1cccc(CNC(=O)C(Cc2ccccc2)NS(=O)(=O)c2ccc3c(c2)CCN3C(C)=O)c1 (stereo unspecified) | inactive: -0.717% | –
29 | CCOc1ccccc1CNC(=O)c1ccc2c(c1)N(CC)CCS2 | inactive: -0.884% | –
30 | Cc1ccc(NC(=O)CCc2nc(-c3ccccc3F)no2)c(C)c1 | inactive: 3.05% | –
31 | CCOc1cc2c(cc1OCC)C(CC(=O)OC)N(C(=O)Nc1cc(C)cc(C)c1)CC2 (stereo unspecified) | inactive: 11.1% | –
32 | CS(=O)(=O)c1ncc(Cl)c(C(=O)N(Cc2ccc(Cl)cc2)Cc2ccco2)n1 | – | active: 1850 nM
33 | Cc1cccc(OCC(=O)Nc2nnc(S(=O)(=O)N3CCCCCC3)s2)c1 | inactive: -12.3% | –
34 | Cc1ccc(-n2nc(C(=O)NC(C)C)c(=O)n(C)c2=O)cc1 | inactive: -9.34% | –
35 | Cc1oc(-c2ccccc2Cl)nc1CS(=O)CC(=O)N1CCN(c2cccc(C(F)(F)F)c2)CC1 (stereo unspecified) | inactive: -16.7% | –
36 | Cc1nc2sccn2c(=O)c1S(=O)(=O)Nc1ccc(N2CCN(C)CC2)cc1 | inactive: 2.77% | –
37 | COc1cc(OC)c(NC(=O)NCCn2nnc3cc(S(=O)(=O)N(C)C)ccc32)cc1Cl | inactive: 0% | –
38 | COc1ccc(-c2nn3c(=O)cc(CN4CCN(C(=O)Nc5cc(C)ccc5C)CC4)nc3s2)cc1 | inactive: 0% | –
39 | CCCCSCCCNC(=O)C1CCN(Cc2nc(-c3ccc(CC)cc3)oc2C)CC1 | inactive: -1.39% | –
40 | Cc1cccc(N2CCN(C(=O)c3sc4nc5n(c(=O)c4c3C)CCC5)CC2C)c1 (stereo unspecified) | inactive: -1.69% | –
41 | CCOc1ccc(CCNC(=O)C(CC)n2nc(C)c3c(C)n(-c4ccccc4)nc3c2=O)cc1 (stereo unspecified) | inactive: -13.1% | –
42 | COc1ccc(-c2c(C#N)c(SCC(=O)Nc3ccc(C)c(C)c3)nc(C)c2C(=O)Nc2ccc(Cl)cc2)cc1 | inactive: 7.49% | –

Row | Compound | activity change, negative = inhibition | Potency
43 | CCOC(=O)c1c(C)[nH]c(C)c1S(=O)(=O)N1CCC(C(=O)NCc2ccc(F)cc2)CC1 | inactive: 0% | –
44 | O=C(CSc1nnc(-c2ccccc2Br)n1-c1ccccc1)c1ccc(F)cc1 | inactive: 2.07% | –
45 | Cc1nc2ccn(Cc3cccnc3)c(=O)c2cc1C(=O)NCc1ccccc1 | inactive: -0.18% | –
46 | O=C(NC1CCCC1)c1ccc(CSc2nc3cccnc3n2Cc2cccc(F)c2)cc1 | inactive: -10.2% | –
47 | CC(C)(C)C1CCc2nc(NC(=O)c3cccc(Cl)c3)sc2C1 (stereo unspecified) | inactive: 2.54% | –
48 | O=c1[nH]c(SCc2ccccc2)nc2c1CCCC2 | inactive: -30.1% | –
49 | COc1ccc(NC(=O)C2=C(C)Nc3ncnn3C2c2sccc2C)cc1 (stereo unspecified) | inactive: 3.93% | –
50 | COc1cc(OC)c(NC(=O)Cc2c(C(=O)O)c(C)cn2C)cc1Cl | inactive: -0.0216% | –
51 | Cc1ccc2oc(=O)n(CCNC(=O)Nc3ccccc3C)c2c1 | inactive: -3.56% | –
52 | CCc1ccc(OCC(=O)Nc2ccc(S(=O)(=O)Nc3onc(C)c3C)cc2)cc1 | inactive: -3.3% | –
53 | COc1ccc(OC2CCN(S(=O)(=O)c3cccc(F)c3)CC2)cc1 | inactive: -11.5% | –
54 | Cc1ccc(CNC(=O)Cc2c(C(=O)O)c(C)cn2C)cc1 | inactive: -2.23% | –
55 | CCOc1ccc(CN2C(=O)c3ccccc3Sc3ccc(C(=O)NCc4ccc5c(c4)OCO5)cc32)cc1 | inactive: -10.6% | –
56 | Cc1ccccc1NC(=O)Nc1csc2c1CCCC2 | inactive: -4.6% | –
57 | COc1ccc(C(=O)CSc2nc3cc(C(=O)NC4CCCC4)ccc3c(=O)n2CC2CCCO2)cc1 (stereo unspecified) | inactive: -4.5% | –
58 | Cc1cccc(C(=O)N2CCNC(=O)C2CC(=O)Nc2ccc(F)cc2)c1 (stereo unspecified) | inactive: -5.29% | –
59 | COC(=O)c1cc2oc3ccccc3c2n1CC(=O)Nc1cccc(SC)c1 | inactive: -2.08% | –
60 | Cc1cccc(NC(=O)Cn2c(=O)n(CCc3ccccc3)c(=O)c3ccccc32)c1 | inactive: -18.6% | –
61 | COc1ccc(C2C(C(=O)Nc3ccccc3)=C(C)Nc3nc(-c4ccccc4)nn32)c(OC)c1 (stereo unspecified) | inactive: -1.91% | –
